Reference: the supplement of paper PMC3334620
Over roughly 33,000 sequences, “E-score (-0.5 to 0.5)” has its median near -0.041; the highest 2% begin near 0.37. The list shows a part of the results.

Each sequence was assayed against T1, Ecm22 (UniProt Q05958) (assay: PBM E-score (8-mer binding enrichment) (E-score (-0.5 to 0.5)); higher = stronger / more preferred TF binding; most listed sequences are background and not binding sites). Settings: protein concentration: 200 nM; construct: GST-full length.
T1 sequence: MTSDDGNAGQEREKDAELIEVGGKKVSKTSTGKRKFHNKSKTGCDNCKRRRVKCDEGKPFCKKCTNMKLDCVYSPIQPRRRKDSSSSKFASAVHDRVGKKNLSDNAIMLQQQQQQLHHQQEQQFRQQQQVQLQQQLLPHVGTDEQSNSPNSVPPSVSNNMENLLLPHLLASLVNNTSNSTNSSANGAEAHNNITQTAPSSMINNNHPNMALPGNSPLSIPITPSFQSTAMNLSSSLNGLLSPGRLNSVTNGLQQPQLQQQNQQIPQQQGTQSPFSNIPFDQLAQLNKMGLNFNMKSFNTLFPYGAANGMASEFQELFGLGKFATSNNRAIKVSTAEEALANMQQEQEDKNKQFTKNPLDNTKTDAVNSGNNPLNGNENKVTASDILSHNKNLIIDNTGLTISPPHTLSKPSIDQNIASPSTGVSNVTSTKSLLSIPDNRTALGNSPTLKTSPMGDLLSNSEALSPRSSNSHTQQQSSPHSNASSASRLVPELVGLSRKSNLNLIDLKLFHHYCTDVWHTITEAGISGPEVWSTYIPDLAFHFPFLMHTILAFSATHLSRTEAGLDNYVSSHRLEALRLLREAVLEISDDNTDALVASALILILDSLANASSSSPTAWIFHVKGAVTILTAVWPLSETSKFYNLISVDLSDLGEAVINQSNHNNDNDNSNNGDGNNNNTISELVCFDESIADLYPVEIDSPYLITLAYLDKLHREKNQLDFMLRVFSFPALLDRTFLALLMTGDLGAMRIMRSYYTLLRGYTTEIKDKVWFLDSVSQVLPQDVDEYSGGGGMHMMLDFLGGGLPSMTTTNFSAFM
In short: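 PURExpress in vitro transcription/translation supplied GST-tagged yeast transcription factors, either full-length or DNA-binding domain. Applied at about 100-200 nM to universal all-10-mer Agilent arrays double-stranded by primer extension, the bound protein was detected with fluorescent anti-GST. E-scores, modified Wilcoxon-Mann-Whitney statistics, were given by the Universal PBM Analysis Suite to ungapped eight-base words pooled with their reverse complements after masliner normalisation.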

Row | Sequence | PBM E-score
1 | AAGTTCGT | 0.319
2 | GAGCTGCA | 0.0122
3 | AGATTAGA | -0.14
4 | CGCGCCCC | -0.142
5 | ATGACCTA | 0.0367
6 | ACTAATCT | 0.0304
7 | AGGCTGGA | -0.161
8 | CATCCGCC | -0.187
9 | ACACGATC | 0.0695
10 | GCCCGCCC | -0.0527
11 | GTTAACCA | 0.0331
12 | CACAGTAA | -0.101
13 | GAAAGTGC | -0.364
14 | GAGCGACA | 0.27
15 | CTTTAAGA | 0.0616
16 | GCTGAGCA | -0.0744
17 | ACCGTTCA | 0.296
18 | ATGGGTGG | -0.257
19 | ACGCAGAC | -0.0633
20 | ATGTGACG | -0.0295
21 | GTGCAAGA | 0.0911
22 | ACTCACAT | -0.033
23 | ATTATTCC | 0.123
24 | AAAAGAAC | 0.0234
25 | CTCGATAA | 0.184

Row | Sequence | PBM E-score
26 | CCCCGTCG | 0.115
27 | AGACACAT | -0.158
28 | GCACAGAC | -0.00585
29 | CGAAGGTA | 0.116
30 | GTAGCTGA | -0.0734
31 | ACATTTGG | -0.242
32 | ATAAAGGA | -0.198
33 | AGTCCGGA | -0.036
34 | AGTAGCGA | 0.153
35 | GACCTGTA | 0.12
36 | CCAATAAA | -0.0255
37 | CTGGTTGA | -0.248
38 | GGAAGCTA | -0.108
39 | CGGTATGC | 0.0372
40 | CAGTATGA | -0.185
41 | ACGGCATG | -0.00198
42 | CACCACGA | 0.0869
43 | AGACACAG | -0.336
44 | AAAATAAT | 0.00354
45 | CACTCGAA | 0.0641
46 | AGTAGTGA | -0.155
47 | AGAGGGAT | -0.0615
48 | CTCTACCA | 0.00853
49 | GGCTATCA | -0.115
50 | AGGGAGGG | -0.307

Row | Sequence | PBM E-score
51 | GCGGACAA | 0.0928
52 | AGTATGCA | -0.271
53 | AAGAGTTG | 0.0167
54 | CAGAGGCG | -0.158
55 | CAGTCTTC | -0.246
56 | AAGTGAAT | -0.0871
57 | TAGTTACA | -0.0578
58 | CTCGCCAG | 0.0513
59 | GTCCGGAC | -0.0153
60 | CACCCGGC | -0.296
61 | ACCAATCG | 0.0931
62 | ACCTCAGG | -0.335
63 | GTTCCAAC | 0.135
64 | ACTCGCTG | 0.0365
65 | AGAATGAC | -0.266
66 | AATCAGAT | -0.143
67 | AAGTCGGA | 0.141
68 | GAAGGAAC | 0.0856
69 | TGCCGCCA | -0.0293
70 | AGCTCGAG | -0.00883
71 | AACTAGAC | 0.00302
72 | CGTATACG | 0.489
73 | ATCAGGCC | -0.128
74 | GAATTTCC | 0.0531
75 | GTCATATA | 0.0221

Row | Sequence | PBM E-score
76 | GAGCGCAC | 0.00729
77 | CGGAAGAG | -0.0717
78 | GGATATGA | 0.103
79 | ACAAACTC | 0.0302
80 | AAAAATAC | 0.0641
81 | ACCTACGG | -0.24
82 | CTCTCGAA | -0.0852
83 | GTGAACTA | 0.0738
84 | CATAGTCG | 0.0472
85 | CTGGTAGC | -0.248
86 | ACCCTCCG | -0.0451
87 | AAGAATGC | -0.151
88 | CGTATTGA | 0.241
89 | ACCGGACG | 0.0312
90 | AGCGCTTG | -0.203
91 | GTGGTAAC | 0.0265
92 | CGTCAAAA | 0.0203
93 | ATATGGAA | -0.00599
94 | TAAAAATA | 0.00387
95 | AATCTCGT | 0.386
96 | CCTCACAA | -0.155
97 | AGTTCAGC | -0.102
98 | ATGAAGTA | -0.0234
99 | GTCGTCAA | -0.0282
100 | CGATTGGA | -0.0135

Row | Sequence | PBM E-score
101 | GAATATAC | 0.232
102 | GGGCACTA | -0.134
103 | ACTATAAA | -0.184
104 | ATATCTTG | -0.103
105 | AATCGACG | 0.126
106 | CAAGGACA | -0.247
107 | AACAACAG | -0.12
108 | ACAGAAAG | -0.0506
109 | AGAGTGTC | 0.0415
110 | GTATAGTA | 0.345
111 | CAGGTCCC | -0.238
112 | AGCACATG | -0.00329
113 | ATATGCAT | -0.00148
114 | CTCAAAGA | -0.194
115 | ACCTTTAC | 0.0667
116 | GGCGGTGA | -0.0904
117 | TATCAACA | -0.00615
118 | CGCGCCCA | -0.00819
119 | TAACTTAA | -0.141
120 | GCAGTCGA | -0.106
121 | ACGGCTAA | 0.178
122 | CTTAATAA | 0.0233
123 | GAGACAAA | -0.0853
124 | AACAGTGC | -0.0382
125 | CACGAGTG | 0.106

Row | Sequence | PBM E-score
126 | GAAATAAC | -0.0134
127 | CGGAGGAG | -0.134
128 | ACGCTCGG | 0.21
129 | AACGCCCT | -0.00177
130 | CAACAGCG | -0.152
131 | CAAATCGC | -0.151
132 | CTTAAGTC | -0.146
133 | GAGGGACC | 0.00761
134 | CAAGGAGA | -0.262
135 | AAAACGAT | 0.257
136 | AGCGACAT | 0.214
137 | CCGAACCG | 0.12
138 | ATTATACA | 0.0593
139 | GCCGGCAC | -0.079
140 | GGATGCAC | -0.164
141 | ATTCGAAA | 0.0727
142 | AGTTGGTC | -0.129
143 | GGGGCCAC | -0.218
144 | ATGACAGA | -0.0246
145 | ATTACAGG | 0.045
146 | ACATATAA | -0.118
147 | GTTAGCCA | -0.0509
148 | AACTACGT | 0.161
149 | TAGTGCAA | -0.0232
150 | CATAACGA | 0.0768

Row | Sequence | PBM E-score
151 | ATGTGTGC | -0.252
152 | CTTGCGGA | 0.0958
153 | CGCAATAA | 0.117
154 | ACGTAACA | -0.00639
155 | ATCTAAGA | -0.199
156 | GGACCGAA | 0.215
157 | ACGGCCGT | 0.26
158 | AAGGGAAC | 0.164
159 | ATAAAAGG | -0.132
160 | GAAATTTA | 0.177
161 | GGAAAGAC | -0.173
162 | AGTCCAAG | -0.189
163 | TCTATTAA | -0.0219
164 | GCAATACC | 0.0155
165 | GCGACCTA | 0.115
166 | AGGACAAC | -0.109
167 | CCTAAGCG | 0.183
168 | GCTGGTGA | 0.0251
169 | CCGTGCCA | -0.29
170 | CACGAAAC | 0.147
171 | GGCAAAAC | -0.29
172 | CCTCCAAC | -0.238
